# According to PubChem BioAssay AID504832 (National Center for Advancing Translational Sciences (NCATS), 2011):
# The whole screen tested about 310,000 compounds, of which about 18,000 (5.8%) were called active. The shares of active, inactive and inconclusive entries below differ from those in the screen. The call rests on the fitted dose curve; in most records, active means well fitted inhibition curve with a large enough effect; inconclusive means small, poorly fitted or top-dose-only effect, or another doubt; inactive means no such curve, though single readings can be large or run the other way. Potencies of inconclusive entries are left out as doubtful fits.
# Test: Primary qHTS for delayed death inhibitors of the malarial parasite plastid, 48 hour incubation
# Conditions: P. falciparum luciferase growth in erythrocytes; series mostly up to 28.7 µM
# In short: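 Growth was read as firefly luciferase luminescence after a 48 h, 37 C, 5% CO2 exposure of compounds to reporter-bearing P. falciparum cultures (0.1% parasitemia, 2% hematocrit final) in Albumax-supplemented RPMI 1640.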
# On the % scale 0 is the no-effect control and ±100 the full control effect; potency means the concentration at half of the fitted maximal effect; tags describe the fitted curve by direction and shape.
SMILES,Potency,"activity change, negative = inhibition"
O=C(CSc1nc2ccccc2c(=O)n1-c1ccc(F)cc1F)Nc1ccc2c(c1)CCC2,active: 9.28 µM,–
CCCC1=Nc2cc(C(=O)NCCN3CCOCC3)ccc2Sc2ccc(C)cc21,"inconclusive [inhibitor, partial curve]",–
Oc1[nH]c2ccc(Br)cc2c1N=Nc1ccc(C(F)(F)F)cn1,"inconclusive [inhibitor, single point]",–
Cc1cccc(OCC(=O)Nc2ccc(NC(=O)c3ccccc3)cc2)c1,inactive,–
COCCN1C(=O)c2ccccc2C(C(=O)NCCCN2CCCC2)C1c1c[nH]c2ccccc12 (stereo unspecified),active: 13.1 µM,–
NC(N)=N/N=C/c1ccc(OCc2ccc(Cl)cc2)cc1,active: 0.329 µM,–
COCc1nnc(NS(=O)(=O)c2ccc(C)cc2)s1,inactive,–
CC(C)c1cc(C(=O)N2CCCC(CCC(=O)N3CCN(c4ccccn4)CC3)C2)no1 (stereo unspecified),"inconclusive [inhibitor, partial curve]",–
C[C@@H]1NC(=O)[C@@]2(C)[C@@H](c3ccccc3)[C@H]3COc4ccccc4[C@@H]3N2C1=O,inactive,–
Cc1ccc(C(C(=O)NC(C)(C)C)N(C(=O)CCC(=O)Nc2ccccn2)c2ccccc2F)cc1 (stereo unspecified),"inconclusive [inhibitor, single point]",–
Cc1nnsc1S(=O)c1ccc(Br)cc1 (stereo unspecified),"inconclusive [inhibitor, full curve, poor fit]",–
CSc1ccccc1OCc1cc(C(=O)N(C)C2CCCc3ccccc32)no1 (stereo unspecified),"inconclusive [inhibitor, single point]",–
Cc1cccc(N2CCN(C(=O)C3CCC(CNS(=O)(=O)c4cccs4)CC3)CC2)c1C (stereo unspecified),active: 5.22 µM,–
CC(C)(C)N1CC(c2nc3ccccc3n2Cc2ccccc2)CC1=O (stereo unspecified),"inconclusive [inhibitor, partial curve, poor fit]",–
Cn1cccc1/C=N/n1c(-c2ccc(C(C)(C)C)cc2)n[nH]c1=S,"inconclusive [inhibitor, single point]",–
Cc1cccc(C)c1Nc1nnc(SCC(=O)Nc2cc(S(=O)(=O)N3CCCCC3)ccc2Cl)s1,active: 13.1 µM,–
CCc1cccc(Nc2c([N+](=O)[O-])cc(C(=O)N3CC(=O)Nc4ccccc43)cc2[N+](=O)[O-])c1,"inconclusive [inhibitor, single point]",–
CCCCN1c2ccccc2N(CCCO)c2cc(C)nnc21,"inconclusive [inhibitor, partial curve]",–
CCc1ccc(CNC(=O)C2CCN(c3nnc(C)c4c(C)n(-c5ccc(C)cc5)nc34)CC2)cc1,"inconclusive [inhibitor, partial curve]",–
CCC(C)NC(=O)CSc1nc2cc3c(cc2c(=O)n1Cc1ccco1)OCO3 (stereo unspecified),inactive,–
CCCCCN(C(=O)CCC(=O)OCCOc1ccccc1)c1c(N)n(CCCC)c(=O)[nH]c1=O,"inconclusive [inhibitor, single point]",–
COC(=O)C1=C(C)N(Cc2ccc(OC)cc2)C(=O)/C1=C\c1ccco1,"inconclusive [inhibitor, partial curve, poor fit]",–
C=CCn1c(=N)n(CC(=O)c2ccc(Br)cc2)c2ccccc21,"inconclusive [inhibitor, partial curve, poor fit]",–
O=C(c1ccc(S(=O)(=O)N2CCc3ccccc3C2)cc1)N1CCCCC1,"inconclusive [inhibitor, single point]",–

SMILES,Potency,"activity change, negative = inhibition"
COc1ccc(C2CC(O)(c3ccccc3)Oc3cc(OC)c(OC)c(OC)c32)cc1 (stereo unspecified),active: 10.4 µM,–
O=C(OCc1cccc(C(F)(F)F)c1)c1cc(S(=O)(=O)N2CCOCC2)ccc1F,inactive,–
CCOC(=O)c1c(N)sc2c1CCC(C)C2 (stereo unspecified),"inconclusive [inhibitor, single point]",–
Cc1ccc(NC(=O)Nc2nnc(Cc3ccc([N+](=O)[O-])cc3)s2)cc1C,"inconclusive [inhibitor, single point]",–
COc1ccc(OC)c(NC(=O)CSc2nc(=O)n(CCN3CCOCC3)c3c2CCC3)c1,"inconclusive [inhibitor, partial curve, poor fit]",–
CCOC(=O)C1CCN(C2CC(=O)N(c3cccc(Cl)c3)C2=O)CC1 (stereo unspecified),inactive,–
Clc1ccc(C2=Nn3c(nnc3-c3cccs3)SC2)cc1,"inconclusive [inhibitor, full curve]",–
CCOc1ccc(NS(=O)(=O)c2ccc(C(=O)N3CC(C)OC(C)C3)cc2)cc1 (stereo unspecified),inactive,–
C/C(=N/N=C(/C)c1cccs1)c1cccs1,inactive,–
CC(C)(Sc1ccc(CCN(CCCCC2CCCCC2)C(=O)NC2CCCCC2)cc1)C(=O)O,inactive,–
COc1ccc(CCNC(=O)c2sc3ccccc3c2Cl)cc1OC,inactive,–
Cc1cc(C)c(C)c(OCC(=O)N2CCN(c3ccccn3)CC2)c1,"inconclusive [inhibitor, partial curve, poor fit]",–
CC(C)N1CCC(N2CCN(Cc3ccc(C#CC(C)(C)O)s3)CC2CCO)CC1 (stereo unspecified),inactive,–
Oc1ccccc1CN1CCN(C(O)(c2ccccc2)c2ccccc2)CC1,active: 5.86 µM,–
COc1ccc(CN(C(=O)c2cc(=O)c3ccccc3o2)C2CCS(=O)(=O)C2)cc1 (stereo unspecified),inactive,–
Cc1cccc(CCNC(=O)c2nnc(Cc3ccc(Cl)cc3)o2)c1,inactive,–
Cn1cc(C(=O)c2cccc(Cl)c2)cc1/C=N\O,inactive,–
COc1ccc(C)c(Cn2c(-c3nonc3N)nc3ccccc32)c1,"inconclusive [inhibitor, single point]",–
Cn1nc(C(F)(F)F)cc1-c1ccc(S(N)(=O)=O)s1,inactive,–
Cc1cccc(C(=O)NCC(=O)NCC2COc3ccccc3O2)c1 (stereo unspecified),"inconclusive [inhibitor, single point]",–
CC(=O)CN1C(=O)NC(c2ccccc2)(c2ccccc2)C1=O,inactive,–
CC(C)CC(=O)Nc1ccc2oc(-c3cccnc3)nc2c1,inactive,–
OC1(c2cccc(C(F)(F)F)c2)CCN(CCN2CCCCC2)CC1,"inconclusive [inhibitor, partial curve, poor fit]",–
O=S(=O)(Nc1ccccc1N1CCOCC1)c1ccc(Cl)cc1,"inconclusive [inhibitor, single point]",–

SMILES,Potency,"activity change, negative = inhibition"
Cc1cc(C)nc(NC(=O)c2ccc3c(c2)OCO3)c1,inactive,–
CCOC(=O)c1c(C)[nH]c(C(=O)OCC(=O)N(CC(C)C)c2c(N)n(Cc3ccccc3)c(=O)[nH]c2=O)c1C,"inconclusive [inhibitor, partial curve, poor fit]",–
CC(C)CN(C(=O)CSc1nc2ccccc2c(=O)n1C)C1CCS(=O)(=O)C1 (stereo unspecified),"inconclusive [inhibitor, single point]",–
CC1CCCCN1C(=O)CN1C(=O)NC2(CCCCC2C)C1=O (stereo unspecified),"inconclusive [inhibitor, full curve]",–
CC(=O)Nc1ccc(NC(=O)C(C)OC(=O)c2c(C)nn(-c3ccccc3)c2Cl)cc1 (stereo unspecified),"inconclusive [inhibitor, single point]",–
CCC/C(=N\NC(=O)Cc1csc(N2CCOCC2)n1)c1ccccc1,inactive,–
CSc1ccc2c(c1)N(CCC1CCCCN1C)c1ccccc1S2 (stereo unspecified),active: 9.28 µM,–
CC(C)CNCC(=O)N1c2ccccc2Sc2ccccc21,"inconclusive [inhibitor, partial curve, poor fit]",–
O=C1Cc2ccccc2Sc2cc(OCCCN3CCCCC3)ccc21,"inconclusive [inhibitor, single point]",–
O=C(NCCc1ccccc1)C(NS(=O)(=O)c1cccc2nsnc12)c1ccccc1 (stereo unspecified),"inconclusive [inhibitor, partial curve, poor fit]",–
CCOc1ccc(C(=S)N2CCN(C)CC2)cc1,–,inactive: -0.981% [at 5.75 µM]
O=C(CCCN1C(=O)/C(=C/c2ccccc2Cl)SC1=S)NNC(=O)c1ccc(Cl)cc1,"inconclusive [inhibitor, single point]",–
Cc1ccc(NC(=O)Cc2ccccc2)c(C)c1,inactive,–
CCOC(=O)N1CCN(Cc2nc3cc(NC(=O)c4ccco4)ccc3n2C)CC1,"inconclusive [inhibitor, single point]",–
CCC(CC)C(=O)Oc1c(Sc2ccccc2[N+](=O)[O-])c(C)nn1C(C)(C)C,active: 9.28 µM,–
CC(C)(C)NC(=O)CN(Cc1ccc2c(c1)OCO2)C(=O)CCC(=O)Nc1nccs1,inactive,–
Cc1c(N=NC2=C(O)CC(C)(C)CC2=O)cc2c(c1[N+](=O)[O-])C(C)(C)CC2(C)C,"inconclusive [inhibitor, partial curve]",–
O=C(O)c1ccccc1C(=O)N1CCc2c([nH]c3ccccc23)C1C(F)(F)F (stereo unspecified),inactive,–
CCOc1ccc(-n2c(-c3ccccc3)c[n+]3c2CCC3)cc1,"inconclusive [inhibitor, full curve]",–
CCOC(=O)N1CCC(N2CCN(CCC(C)C)C(CCO)C2)CC1 (stereo unspecified),inactive,–
COc1ccccc1NC(=S)N1CCC(c2nc3cc(C)c(C)cc3[nH]2)CC1,"inconclusive [inhibitor, single point]",–
O=S(=O)(c1ccc(Br)cc1)c1nc(-c2ccccc2)oc1NCCN1CCOCC1,"inconclusive [inhibitor, single point]",–
CCCn1c(N)c(Sc2ccc(Cl)cc2)c(=O)n(CCC)c1=O,"inconclusive [inhibitor, partial curve, poor fit]",–
